PubChem BioAssay AID493208 (National Center for Advancing Translational Sciences (NCATS), 2011)
Screen size: about 44,000 compounds; about 340 (0.77%) were called active. Inconclusive means that the source gave no clear call. Such entries were picked first, then a sample of the others. Calls follow the shape of the dose curve; as a rule, active = well fitted inhibition curve with a large enough effect; inconclusive = small, poorly fitted or top-dose-only effect; inactive = flat fitted curve, though single readings scatter. No potency is given beside an inconclusive call; the fits are too rough.
Potency is read from the fitted curve at half-maximal effect; tags tell the direction and shape of the fitted curve.

Test: Acumen qHTS Assay for Inhibitors of the mTORC1 Signaling Pathway in MEF (Tsc2-/-, p53-/-) Cells: Sytravon; also: nearly all actives have a fitted effect of over 50% in size;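 as to activity change, negative = inhibition: plate controls were DMSO for no effect and rapamycin for full effect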
Conditions: phospho-rpS6 immunofluorescence/PI, 24 h; series mostly up to 38.3 µM; activity change, negative = inhibition: at the top concentration
Method in brief: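 Plate MEFs (Tsc2-/-, p53-/-, empty vector) in DMEM/10% FBS; after 24 h add compound, incubate 24 h at 37 degree Celsius; fix in PFA/TX-100, block, stain phospho-rpS6 and 10 uM PI; scan at 488 nm; report % positive cells.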
For `CCc1ccc(C(=O)c2cn(CC(=O)Nc3ccc(C)c(C)c3)c3ccccc3c2=O)cc1`, the Potency was inconclusive [falling, full curve, poor fit].
In the case of `Cc1ccc(C)c(CS(=O)(=O)c2cn(CC(=O)N(C(C)C)C(C)C)c3ccccc23)c1`, the Potency is reported as inconclusive [falling, partial curve, poor fit].
For `CCOC(=O)c1cc(-c2ccc(F)cc2)n(CCC(=O)NCCc2ccc(C)cc2)c1C`, the “activity change, negative = inhibition” value was inactive: -3.64%.
For `CCCNC(=O)CCSc1nc(-c2ccc3c(c2)OCO3)cc(C(F)(F)F)n1`, the “activity change, negative = inhibition” value was inactive: -6.64%.
For `O=C(Nc1cccc(Cl)c1)c1ccc(F)c(S(=O)(=O)N2CCC3(CC2)OCCO3)c1`, the “activity change, negative = inhibition” value was inactive: -2.88%.
In the case of `O=C(Cn1c(=O)c2cccn2c2ccc(F)cc21)N1CCN(c2ccc(F)cc2)CC1`, the Potency is reported as inconclusive [falling, single point].
In the case of `CCOc1ccc(C(=O)Nc2cc(-c3nc4ccccc4s3)ccc2OC)cc1`, the Potency is reported as inconclusive [falling, full curve].
In the case of `COC(=O)CCNC(=O)N1CCN(c2nnc(C)c3c(C)n(-c4ccc(Cl)cc4)nc23)CC1`, the “activity change, negative = inhibition” value is reported as inactive: -10.5%.
With `O=S(=O)(NCC(Nc1ccc(Cl)cc1)c1ccccc1)c1ccccc1` (stereo not given) the Potency was inconclusive [falling, single point].
With `CC(C)NC(=O)C1CCN(C(=O)c2cc3sccc3n2Cc2ccc(Cl)cc2)CC1` the “activity change, negative = inhibition” value was inactive: 0.584%.
With `Cc1ccc(CNCc2c(C(=O)O)n(Cc3ccc(C)cc3)c3cc(C)ccc23)cc1` the Potency was inconclusive [falling, single point].
With `CC(=O)N1CCOc2cc(S(=O)(=O)N(C)Cc3ccccc3)c(Cl)cc21` the Potency was inconclusive [falling, single point].
With `Cn1nnnc1SCCCNCc1cccc(OCc2ccccc2Cl)c1` the Potency was inconclusive [falling, single point].
For `CCN1C(=O)C(Cc2nc3ccccc3c(=O)n2-c2ccccc2)c2cc(Br)ccc21` (stereo not given), the Potency was inconclusive [falling, partial curve, poor fit].
For `CCc1nn(CC(=O)N2CCN(c3cccc(C(F)(F)F)c3)CC2)c(=O)c2cccn12`, the Potency was inconclusive [falling, full curve].
In the case of `Cc1cccc(NC(=O)Cn2c(=O)oc3cc(S(=O)(=O)NC4CCCC4)ccc32)c1`, the “activity change, negative = inhibition” value is reported as inactive: -4.91%.
For `COc1ccccc1N1CCN(CC(O)COc2ccc(C)cc2C(C)(C)C)CC1` (stereo not given), the Potency was inconclusive [falling, single point].
In the case of `CSc1nc2sc3c(c2c(=O)n1-c1ccccc1)CCC(C(C)(C)C)C3` (stereo not given), the Potency is reported as inconclusive [falling, single point].
For `O=C(CSc1nc(-c2ccc(F)cc2)cc(C(F)(F)F)n1)NCCc1ccccc1`, the Potency was inconclusive [falling, partial curve, poor fit].
In the case of `COc1cccc(N2CCN(C(=O)c3ccc(NC(=O)c4nsc5ccccc45)cc3)CC2)c1`, the “activity change, negative = inhibition” value is reported as inactive: 17.6%.
In the case of `COc1cccc(C(=O)Nc2ccccc2-c2nnc(-c3cccc(OC)c3)o2)c1`, the Potency is reported as inconclusive [falling, single point].
With `O=C(Cn1c(=O)oc2cc(S(=O)(=O)NCc3ccccc3)ccc21)NCc1ccc(Cl)cc1` the Potency was inconclusive [falling, single point].
With `Cc1ccc(NC(=O)c2c(C)oc3ccc(O)c(CN4CCCCC4)c23)c(C)c1` the Potency was inconclusive [falling, single point].
With `O=C(c1ccc(CS(=O)c2ccccc2Cl)o1)N1CCN(c2cccc(Cl)c2)CC1` (stereo not given) the Potency was inconclusive [falling, partial curve, poor fit].
With `O=c1c(=O)n(Cc2c(F)cccc2Cl)ccn1Cc1ccccc1` the Potency was inconclusive [falling, single point].
With `COc1cccc(NC(=O)Cn2c(=O)n(CC(=O)NCCc3ccccc3)c(=O)c3sccc32)c1` the Potency was inconclusive [falling, partial curve].
For `COc1ccc(C)cc1NC(=O)Cn1c(=O)oc2cc(S(=O)(=O)NCc3ccccc3)ccc21`, the “activity change, negative = inhibition” value was inactive: -1.36%.
In the case of `Cc1ccc(C)c(N2CCN(CCCNC(=O)c3nnc(Cc4ccc(F)cc4Cl)o3)CC2)c1`, the Potency is reported as inconclusive [falling, partial curve, poor fit].
For `CCCCc1ccc(NC(=O)c2ccc3c(c2)CCN3S(=O)(=O)c2ccccc2)cc1`, the Potency was inconclusive [falling, single point].
For `O=C(NCCCc1nc2ccccc2n1Cc1ccccc1F)c1ccco1`, the Potency was inconclusive [falling, partial curve, poor fit].
With `COc1ccc(CCNC(=O)CCn2c(=O)c3ccccc3n(Cc3ccccc3C)c2=O)cc1OC` the Potency was inconclusive [falling, single point].
With `CCOc1cc(C2C(C(=O)OC)=C(C)NC3=C2C(=O)c2ccccc23)cc(Br)c1OCC` (stereo not given) the Potency was inconclusive [falling, partial curve].
With `CCc1c(C)nc2nc(-c3ccccc3)nn2c1NCc1ccc(C)cc1` the Potency was inconclusive [falling, single point].
With `Cc1ccc(-c2nnn3c2nc(NCc2ccc4c(c2)OCO4)c2ccccc23)cc1` the Potency was inconclusive [falling, partial curve, poor fit].
In the case of `COc1ccccc1N1CCN(C(=O)c2ccc3c(c2)CCN3S(=O)(=O)c2ccccc2)CC1`, the Potency is reported as inconclusive [falling, single point].
For `Cc1ccc(NC(=O)CSc2nc(-c3ccco3)cc(C(F)(F)F)n2)cc1C`, the Potency was inconclusive [falling, partial curve, poor fit].
For `Cc1ccc(NC(=O)c2nc(-c3ccncc3)no2)c(Cl)c1`, the Potency was inconclusive [falling, single point].
For `O=C(NCC1CCN(Cc2ccc(F)cc2)CC1)c1cc2ccc3cccnc3c2[nH]1`, the Potency was inconclusive [falling, single point].
For `CCOc1ccc(NC(=O)Cn2c(=O)oc3cc(S(=O)(=O)N4CCC(C)CC4)ccc32)cc1`, the Potency was inconclusive [falling, single point].
For `CCOC(=O)c1[nH]c2ccccc2c1NC(=O)c1cc(OCC)c(OCC)c(OCC)c1`, the Potency was inconclusive [falling, single point].
In the case of `Cc1cc(=O)n2nc(N3CCC(C(=O)NCc4ccc(Cl)cc4)CC3)sc2n1`, the Potency is reported as inconclusive [falling, partial curve, poor fit].
With `COc1ccccc1Nc1cc(C(=O)NCCCN(C)C2CCCCC2)c2ccccc2n1` the Potency was inconclusive [falling, single point].
In the case of `CCc1ccc(S(=O)(=O)c2nnn3c2nc(N(CC)Cc2ccccc2)c2cc(Cl)ccc23)cc1`, the “activity change, negative = inhibition” value is reported as inactive: -3.4%.
For `CCCCOc1cccc(C2c3c(-c4cc(C)ccc4O)n[nH]c3C(=O)N2CCOC)c1` (stereo not given), the Potency was inconclusive [falling, partial curve, poor fit].
For `CCc1ccc(NC(=O)c2cc(=O)c3ccc(C)c(C)c3o2)cc1`, the Potency was inconclusive [falling, partial curve, poor fit].
For `Cc1ccc2c(=O)cc(C(=O)Nc3sc4c(c3C(=O)NCc3cccnc3)CCCC4)oc2c1`, the Potency was inconclusive [falling, partial curve].
For `Cc1ccc(-n2ncc(C(=O)NCCN3CCC(Cc4ccccc4)CC3)c2C2CCN(C(=O)OC(C)(C)C)CC2)cc1`, the Potency was inconclusive [falling, single point].
With `O=C(NCC(c1cccnc1)N1CCc2ccccc21)c1ccc(Cl)cc1` (stereo not given) the “activity change, negative = inhibition” value was inactive: 0.2%.
With `CCOC(=O)c1cc(NC(=O)c2ccc(F)cc2)c(=O)n2c1oc1ccc(Cl)cc12` the Potency was inconclusive [falling, full curve, poor fit].
For `CCN1CCN(C(=O)Cn2ncc3c4ccccc4n(Cc4c(C)cc(C)cc4C)c3c2=O)CC1`, the Potency was active: 16.5 µM.
In the case of `CCN1CCN(CCCNC(=O)Cn2nc(C)n3c(cc4c(OC)cccc43)c2=O)CC1`, the Potency is reported as inconclusive [falling, single point].
With `Cc1ccccc1NC(=O)CSc1ccc(-c2ccccn2)nn1` the Potency was inconclusive [falling, partial curve, poor fit].
In the case of `CC(=O)Nc1cccc(-c2nnc(SCC(=O)c3cc([N+](=O)[O-])ccc3Cl)o2)c1`, the Potency is reported as inconclusive [falling, single point].
In the case of `COc1ccccc1Nc1nn2c(=O)c3ccc(C(=O)NCCc4ccccc4)cc3nc2s1`, the Potency is reported as inconclusive [falling, single point].
For `CCC(C(=O)NCCc1ccc(OC)c(OC)c1OC)n1nc(C)c2sc3ccccc3c2c1=O` (stereo not given), the “activity change, negative = inhibition” value was inactive: 1.05%.
For `Cc1ccc(C)c(N2CCN(CCCNC(=O)c3cnn(-c4cccc(Cl)c4)c3C3CCN(C(=O)OC(C)(C)C)CC3)CC2)c1`, the Potency was inconclusive [falling, single point].
For `COc1ccccc1NC(=O)c1cc2c(-c3ccccc3)nn(-c3ccccc3)c2s1`, the Potency was inconclusive [falling, single point].
In the case of `Cc1cc(=O)n2nc(N3CCC(C(=O)Nc4ccc(Br)c(C)c4)CC3)sc2n1`, the “activity change, negative = inhibition” value is reported as inactive: -1.64%.
With `CC(Nc1oc(-c2ccc(COc3ccccc3)o2)nc1C#N)c1ccccc1` (stereo not given) the Potency was active: 14.7 µM.
For `COc1ccc(C2C(C(=O)Nc3ccccc3)=C(C)Nc3nc(-c4ccc(Cl)cc4)nn32)cc1` (stereo not given), the Potency was inconclusive [falling, single point].
